One molecule from article PMC7615710, “ASPP2 binds to hepatitis C virus NS5A protein via an SH3 domain/PxxP motif-mediated interaction and potentiates infection” (The Journal of general virology, 2023) can be followed below.

The target in the test is T1, HCV [1a.1] NS5A PRR peptide (Hepatitis C virus genotype 1a (strain 1)).
T1 construct: source: synthetic peptide, custom made (TUCF)
The test can be described thus: ITC; 450 or 300 uM NS5A PRR peptide (syringe) titrated to 30 uM ASPP CTD or SH3 domain (cell), 12 °C, 25 mM HEPES pH 7.5, 150 mM NaCl, 500 uM TCEP; 25 steps of 10 ul; AB hetero association model (SEDPHAT). The settings on record: both partners purified. A general note: Isothermal titration calorimetry measures the heat released or taken up as one component is titrated into another.

B1: Abl1 SH3 domain ([…]) (domain or fragment)
chain: not shown
With B1, binding was put at a Kd of 49.9 µM.
